# Measured values reported in ChEMBL document CHEMBL4888484, “Replenishing the malaria drug discovery pipeline: Screening and hit evaluation of the MMV Hit Generation Library 1 (HGL1) against asexual blood stage Plasmodium falciparum ,using a nano luciferase reporter read-out” (2022).
# In all, about 150,000 compounds went through this assay and about 540 (0.36%) showed an effect of 50% or more. The list shows a part of the results.
# Test system: Plasmodium falciparum
# Experiment: Primary screen in NF54 nanoGlo assay, in single point, at 2uM, 72h; a lower Z score goes with more inhibition
# Format: functional, Erythrocyte
# Conditions: timepoint 72 hour
SMILES,% Inhibition [%],Z score
Cc1sc(-c2cc(C(F)(F)F)on2)cc1S(=O)(=O)NCc1ccc2c(c1)OCO2,-2,0.38
CN1C(=O)N(C)C2(c3ccccc3)N(CC(=O)O)C(=O)NC12c1ccccc1 (stereo not drawn),7,-0.85
CCCn1ncc(C(=O)N2CCC(c3nnc(Cn4cccn4)n3C)CC2)c1C,-5,0.83
COc1cccc(-c2cc3n(n2)CCCN(C(=O)NCc2ccco2)C3)c1,0,0
Cc1ccc2oc(-c3cccc(C(=O)N4CC[C@@](O)(CO)C4)c3)nc2c1,-11,1.47
O=C(NCc1ccncc1)[C@]1(F)CCCN(Cc2ccsc2)C1,-13,1.15
O=C(Cc1ccc(F)cc1)Nc1ccc(N2CCN(C(=O)c3cccc(Br)c3)CC2)nc1,2,-0.31
Cc1nc(CN2CCN(C(=O)C3CCC3)[C@H]3CS(=O)(=O)C[C@H]32)n(C)n1,-1,0.17
C[C@H]1CN=C2C=C(N3CCN(C(=O)Nc4ccccc4C(F)(F)F)CC3)N=CN21,-11,1.77
CC[C@H](Nc1nc(-c2ccco2)nc2c1CCNCC2)c1cccnc1,-6,0.93
Cc1ccc(NC2CC(C)OC2=O)cc1OCC(F)F (stereo not drawn),-9,1.27
O=C(N[C@@H]1CN(Cc2ccco2)CC[C@@H]1CO)c1cccnc1,0,-0.06
CCc1ncnc(N(C)CCS(=O)(=O)CC)c1F,-12,1.1
CCn1nnc(C)c1CN1CCC[C@H]1c1cccs1,1,-0.16
Cc1cc(COc2ccccc2)oc1C(=O)N[C@H]1C[C@H](c2cc(=O)[nH]cn2)C1,-16,2.09
Cc1cc(C(=O)N2CCC(c3nc(C4CCOCC4)no3)CC2)nn1C,-5,0.7
Cc1cc(CCNC(=O)c2cccnc2)nn1C,-8,1.13
Cc1ccc(-n2ccnc2)c(C(=O)Nc2cc(F)ccc2C)c1,-3,0.32
Cc1ccnc(N[C@@H](C)c2nccnc2C)c1,2,-0.4
Cc1cc(C)nc(CN(C)CC(=O)NC[C@H]2CCCO2)c1,-6,1.14
COc1ccc(C(=O)N2CCC[C@H]2c2cc(C(C)C)no2)cc1OC,-3,0.37
COc1ccc(CC(=O)NCc2c(C)cc(C)nc2-c2ccc(OC)cc2)cc1,-10,1.58
COc1ccc(NC(=O)c2ccc3nn(CC(=O)Nc4ccc5c(c4)OCO5)c(=O)n3c2)cc1,-30,2.68
CC[C@@H](c1nc(Cn2cnc3ccccc32)no1)N(C)C,4,-0.77
Cc1cccc(OCC(=O)NCC2(N3CCOCC3)CCCCC2)c1C,-9,0.82
O=C(COCc1cccnc1)N1CCOC[C@@H]1CC1CCOCC1,-6,0.64
Cc1cccc(Oc2nc(C)nc(N3CCCC3)c2N)c1,-7,1.33

SMILES,% Inhibition [%],Z score
C=CCOc1ccc(C(F)(F)F)cc1C(=O)N1CC[S+]([O-])CC1,5,-0.95
CN(CCN(C)C1CCCC1)CCn1cc(Cl)cn1,-4,0.69
O=C(C=Cc1ccccc1)NO[C@@H]1CCCCO1,1,-0.17
COc1cccc(CN2CC[C@H](NC(=O)c3ccccn3)[C@@H](O)C2)c1OC,-4,0.78
CN(Cc1nc(C2CC2)no1)C(=O)c1ccc(NC(=O)C2CCC2)cc1,-7,1.15
O=C(Nc1nc(C(c2ccccc2)c2ccccc2)cs1)c1ccccc1Cl,-17,2.93
COc1ccc(S(=O)(=O)N2CCCN(C)c3ccc(F)cc32)cn1,15,-1.89
CC(=O)N1CCN(C(=O)Nc2ccc3cc[nH]c3c2)CC1,-41,4.78
O=S1(=O)CCc2cc(-c3cnn(C(F)(F)F)c3)ccc21,-2,0.34
CCOc1cnc(-c2noc([C@@H](C)c3c(C)nn(C)c3C)n2)cn1,-6,0.75
CN(C)C(=O)C1CCC(CNC(=O)CN(C)S(=O)(=O)c2ccccc2)O1 (stereo not drawn),-2,0.31
Cc1cc(C(=O)Nc2ccc(F)cc2)nc2ccnn12,-2,0.27
Cc1cc(=O)n(Cc2ccccc2F)c2cc(OCC(=O)N3CCOCC3)ccc12,-13,1.89
CC1(C)CN(C(=O)c2cnsn2)Cc2cn[nH]c21,-10,2.11
CCc1ncc2c(n1)CN(c1ccc3ccccc3n1)C2,-9,1.19
COc1cccc(C2CN(C(=O)NC(C)C)CC2C(=O)NCc2ccccn2)c1OC (stereo not drawn),-6,0.59
Cc1noc(C)c1CC(=O)N1CCC=Cc2ccccc21,0,0.01
C[C@]1(c2ccccc2)CCC(=O)N(Cc2ncc[nH]2)C1,-7,1.17
COCC1(O)CN(C(=O)c2oc3c(OC)cc(C)cc3c2C)C1,-16,2.91
CCc1nc(NC(=O)[C@H](C)NC(=O)c2ccoc2)sc1C,5,-0.94
C[C@]1(Cc2cccc3ccccc23)CCCN1Cc1ncccc1C(=O)O,-7,1.21
Cc1ccc(S(=O)(=O)N2CCC[C@H](Oc3ncc(Br)cn3)C2)cc1C,-9,1.47
Cc1nn(-c2ncnc3[nH]cnc23)c2c1[C@@H](c1ccccc1)CC(=O)N2,-2,0.29
O=C(Nc1cccc(CCc2ccncc2)c1)c1csc2c1CCCC2,-5,0.57
CN(Cc1ncc[nH]1)C(=O)COc1cc(Cl)c(Cl)cc1Cl,-3,0.45
O=C1N[C@H]2CN(C(=O)c3n[nH]c4c3CCC4)C[C@@H]2OCc2cn(nn2)CCCOc2cc1ccc2Cl,-11,2.03
Cc1ccc(C)c(OCCN(C)C(=O)c2cc3ncc(CCO)cn3n2)c1,-8,1.46
